Measurements reported in PubChem BioAssay AID1159614 (National Center for Advancing Translational Sciences (NCATS), 2016).
Out of some 45,000 compounds screened, about 65 (0.1%) were called active. Calls come from the whole dose curve; as a rule, active = well fitted activation curve with a large enough effect; inconclusive = small, poorly fitted or top-dose-only effect; inactive = no such curve, though single readings can be large or run the other way. This is one part of the list.

What follows are compounds tested against Galactocerebrosidase (Homo sapiens) (UniProt P54803) (assay: A Novel Cell-Based Assay to Identify Small Molecules for B -Galactocerebrosidase). Settings: 145M-Twi-hGALC-G270D cells (Twitcher mouse brain line with human GALC G270D), HMU-beta-Gal fluorescence, 48 h; series mostly up to 57.5 µM; activation: at the top concentration.
UniProt P54803, sequence (P54803 whole entry, looked up): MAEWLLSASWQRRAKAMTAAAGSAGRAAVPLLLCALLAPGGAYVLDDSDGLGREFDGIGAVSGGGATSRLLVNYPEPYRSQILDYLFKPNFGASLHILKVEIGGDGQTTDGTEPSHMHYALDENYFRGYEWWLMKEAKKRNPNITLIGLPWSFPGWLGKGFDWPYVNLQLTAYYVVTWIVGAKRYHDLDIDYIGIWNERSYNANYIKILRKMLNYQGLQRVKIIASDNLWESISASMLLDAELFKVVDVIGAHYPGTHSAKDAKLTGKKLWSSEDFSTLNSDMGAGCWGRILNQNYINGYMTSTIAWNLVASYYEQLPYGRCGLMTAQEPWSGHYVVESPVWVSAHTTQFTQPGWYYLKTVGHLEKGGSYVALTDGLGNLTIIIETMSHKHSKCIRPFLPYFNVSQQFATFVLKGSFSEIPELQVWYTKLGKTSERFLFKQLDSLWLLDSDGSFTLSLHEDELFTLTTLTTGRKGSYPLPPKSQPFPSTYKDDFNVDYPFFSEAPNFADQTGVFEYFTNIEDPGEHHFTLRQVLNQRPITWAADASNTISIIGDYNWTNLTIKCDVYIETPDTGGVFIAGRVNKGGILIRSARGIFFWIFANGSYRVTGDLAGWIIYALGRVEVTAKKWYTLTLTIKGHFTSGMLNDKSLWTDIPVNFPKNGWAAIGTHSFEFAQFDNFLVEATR
In short: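 Live 145M-Twi cells (Twitcher mouse brain-derived, GALC-null) stably expressing human GALC-G270D, with a wild-type GALC line, were compound-treated. Residual GALC activity was then read as fluorescence from 0.1 mM final HMU-β-gal at pH 5.2; higher signal means activation.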
Note: 0% is about no effect; nearly all actives have a fitted effect of over 65% in size.

activation, inactive:
CCOc1ccccc1NC(=O)CN1CCCN(Cc2cccc(Cl)c2)S1(=O)=O -8.94%, CCn1c(CN2CCOCC2)nc2cc(NC(=O)c3ccc([N+](=O)[O-])cc3)ccc21 -16.5%, CCOc1ccc(-c2nc(SCC(=O)NCCCOC)c(-c3ccccc3)[nH]2)cc1 -16.4%, Cc1c(C(=O)N(Cc2ccc(Cl)cc2)CC2CCCO2)oc2ccc(F)cc12 (stereo unspecified) -10.8%, COc1ccccc1CNC(=O)CSc1ncc2c(n1)-c1cc(Cl)ccc1N(Cc1ccccc1)S2(=O)=O -11.3%, CCc1ccc(NC(=O)C2=CC(c3ccc4c(c3)OCO4)=NS(=O)(=O)N2C)cc1 -9.46%, COc1ccc(NC(=O)Nc2c[nH]c(=O)[nH]c2=O)c(OC)c1 -6.98%, Cc1cccc(-n2c(C)nc3cc(C(=O)NC4CCCCCC4)ccc32)c1 -10.1%, O=C(CS(=O)(=O)c1cccc2nsnc12)Nc1cc(F)ccc1F -21.2%, O=C(Cc1ccccc1F)N1CCC(c2nc3c(nnn3Cc3ccc(F)cc3)c(=O)[nH]2)CC1 -13.2%, COc1ccccc1Oc1c(NS(=O)(=O)c2ccc(C(C)(C)C)cc2)nc(-c2ncccn2)nc1OCCO -12.4%, CSc1ccc(CC2C(=O)Nc3ccccc32)cc1 (stereo unspecified) -6.58%, O=C(CSCc1cc(=O)c2cc(F)ccc2[nH]1)Nc1ccccc1Cl -11.6%, COC(=O)c1cc2oc3ccccc3c2n1Cc1nc(-c2ccccc2C)oc1C 3.1%, CCc1ccccc1NC(=O)CSc1nnc2ccc3ccccc3n12 -9.17%, Cc1cccc(N2CCN(S(=O)(=O)c3cc(C(=O)Nc4ccccc4Cl)ccc3F)CC2)c1C -9.42%, Cc1ccc(NC(=O)[C@@H](c2ccccc2)N2Cc3ccccc3C2=O)cc1 -11.6%, CCC(C)NC(=O)CCc1c(C)nc2nc(-c3cc(OC)cc(OC)c3)nn2c1C (stereo unspecified) -16.3%, CC(C)(C)OC(=O)N1CCC(c2c(C(=O)NCCN3CCC(Cc4ccccc4)CC3)cnn2-c2ccc(F)cc2)CC1 -8.98%, Cc1ccc2[nH]c(CSc3nnc(NC(=O)c4ccc(Cl)cc4)s3)cc(=O)c2c1 -13.7%, Brc1ccc(-n2nc(-c3ccccc3)c3cnc4cc5c(cc4c32)OCO5)cc1 -1.23%, COc1ccc(OC)c(CCNc2nc3ccccc3c3nc(-c4cccnc4)nn23)c1 5.94%, CCc1ccc(OCC2c3cc(OC)c(OC)cc3CCN2C(=O)COc2ccccc2)cc1 (stereo unspecified) -22.5%, CCCN(C(=O)c1coc(=O)c2ccccc12)c1ccccc1C -18.1%, Cc1ccc(CCNC(=O)C2CCN(Cc3nc(-c4ccccc4C)oc3C)CC2)cc1 8.35%, Cc1cc(S(=O)(=O)C(CNC(=O)COc2ccc(Cl)cc2)c2cccs2)ccc1F (stereo unspecified) 9.92%, Cc1cc(=O)[nH]c(=S)[nH]1 -12.5%, CCCN(CCC)C(=O)c1c2c(nc3ccccc13)C(=O)N(C1CCCCC1)C2 -20.8%, COc1cccc(NC(=O)C(Cc2ccccc2)NS(=O)(=O)c2ccc3c(c2)oc(=O)n3C)c1 (stereo unspecified) -3.14%, Cc1coc2cc3oc(=O)c(CC(=O)NCCc4ccccc4)c(C)c3cc12 -9.41%, CCOc1ccc(CCNC(=O)CCc2cn(Cc3ccc(F)cc3)c3ccccc23)cc1 -10.9%, COc1ccc(-n2nc(C(=O)Nc3cccc(C)n3)c3c4ccccc4n(C)c3c2=O)cc1Cl 3.62%, CCn1c(=O)cc(OCC(=O)Nc2cc(Cl)c(OC)cc2OC)c2ccccc21 -16.3%, CCOc1ccc(CCNC(=O)c2cc3c(-c4ccc(OC)c(OC)c4)nn(C)c3s2)cc1OCC -4.66%, CCOc1ccc(NC(=O)Cn2cc(C(=O)c3ccco3)c3ccccc32)cc1 -15.4%, Cc1ccc(N2C(=O)CSC23C(=O)N(CC(=O)Nc2ccc(C(C)C)cc2)c2ccccc23)cc1C (stereo unspecified) -16.4%, COc1ccc(OC)c(NC(=O)c2cnn(-c3ccc(C)cc3)c2C2CCNCC2)c1 -23.2%, CCc1ccccc1N(C)C(=O)c1cc2c(=O)oc3ccccc3c2s1 -9.09%, CC(C)n1c(=N)c(C(=O)NCc2ccccc2)cc2c(=O)n3ccccc3nc21 -19.4%, COc1cc(NC(=O)c2cc(S(=O)(=O)N3CCc4ccccc43)cn2C)cc(OC)c1OC -12.6%, CC(=O)[C@H]1CC[C@H]2[C@@H]3C=CC4=CC(=O)CC[C@@]4(C)[C@@H]3CC[C@]12C -4.62%, Cc1ccc(C)c(CN2C(=O)c3ccccc3S(=O)(=O)c3ccc(C(=O)N4CCCCC4)cc32)c1 -6.09%, O=C(COc1ccccc1[N+](=O)[O-])N(Cc1ccco1)c1ccccn1 -16.6%, COc1cc2c(=O)n(CCc3ccccc3)c(=O)n(CC(=O)Nc3ccccc3)c2cc1OC -21.4%, COc1ccc(C)cc1NC(=O)N1CCCn2nc(C)cc21 -7.18%, O=C(C1CCC1)N1CCc2cc(S(=O)(=O)NCc3ccc(F)cc3)ccc21 -10.2%, CC(C)CC(=O)Nc1c(C(=O)N2CCN(c3ccccc3)CC2)oc2ccccc12 -7.67%, COc1ccc(C(=O)Cn2c(=O)c(-c3cc(C)ccc3NC(C)=O)nc3ccccc32)cc1 -1.17%, CC(=O)c1cc2c(cc1N/C(=N/S(=O)(=O)c1ccc(Br)cc1)c1ccccc1)OCO2 -15.7%, O=C(Cn1c(=O)n(CC2CCC(C(=O)NCCc3ccccc3)CC2)c(=O)c2ccccc21)Nc1cccc(F)c1 (stereo unspecified) 2.9%, COc1ccc(C2C=C(c3ccccc3)Nc3nc(NS(=O)(=O)c4ccc(Cl)cc4)nn32)cc1 (stereo unspecified) 0.542%, COC(=O)c1ccccc1NC(=O)N1CCc2c(sc3c2CCCC3)C1c1ccc(F)cc1 (stereo unspecified) -22.9%, O=C(COc1ccccc1)NC1CC(=O)N(c2ccc3c(c2)OCCO3)C1 (stereo unspecified) -10.8%, CCOc1ccccc1NC(=O)Cn1c(=O)n(-c2cccc(C)c2)c(=O)c2c1c1cc(OC)ccc1n2C 0.887%, Cc1ccc(C)c(N2CCN(C(=O)c3noc4c3CCCCC4)CC2)c1 -9.33%, CCOc1ccc(C(=O)c2cn(CC(=O)Nc3ccc(Cl)cc3)c3cc4c(cc3c2=O)OCCO4)cc1 -6.64%, Cc1ccccc1Cn1c(CN2CCCC(C)C2)nc2c1c(=O)n(C)c(=O)n2C (stereo unspecified) -2.16%, Cc1ccc(-c2nc(CCNC(=O)C(=O)Nc3ccc(C)cc3C)cs2)cc1 -0.592%, Cc1ccc(C)c(-c2[nH]c3c(c2-c2c(-n4cccc4)n(C)c(=O)[nH]c2=O)c(=O)[nH]c(=O)n3C)c1 -8.39%, CCN(CC)S(=O)(=O)c1ccc2c(c1)N(CC(=O)N1CCN(c3ccc(F)cc3)CC1)C(=O)CO2 -22.3%, CCOc1ccc(CCNC(=O)Cn2nc(-c3ccc(C)cc3)ccc2=O)cc1OCC -21.6%, COc1ccc(CNC(=O)c2ccc(CS(=O)(=O)c3ccccc3OC)o2)cc1 -5.76%, O=C(CNS(=O)(=O)c1cccs1)N1CCN(c2cccc(C(F)(F)F)c2)CC1 -22%, CCc1ccccc1NC(=O)C1=C(C)C(=O)OC12CCCCCC2 -10.4%, COc1cc(CN2CCN(S(=O)(=O)c3ccccc3)CC2)cc(OC)c1O -15.5%, Fc1ccc(-c2noc3ncnc(NC4CCCCC4)c23)cc1 -28.5%, CC[C@]1(O)C[C@H]2CN(CCc3c([nH]c4ccccc34)[C@@](C(=O)OC)(c3cc4c(cc3OC)N(C=O)[C@H]3[C@@](O)(C(=O)OC)[C@H](OC(C)=O)[C@]5(CC)C=CCN6CC[C@]43[C@@H]65)C2)C1 -10.6%, COc1ccc(OC)c(NC(=O)c2cccn2-c2nnc(N3CCCCC3)s2)c1 -20.1%, COc1ccc(CNC(=O)c2cc3c(=O)oc4ccc(C)cc4c3s2)c(OC)c1 -19.2%, Cc1cccc(NC(=O)C(=O)NCC(c2ccc3c(c2)OCO3)N2CCN(C)CC2)c1C (stereo unspecified) -7.86%, COc1cc(NC(=O)CSc2ncc(S(=O)(=O)c3ccc(Br)cc3)c(=O)[nH]2)cc(OC)c1 -6.79%, Cc1c2cnn(CC(=O)NCCc3ccccc3)c(=O)c2c(C)n1Cc1ccccc1 -10.5%, COc1ccc(CNC(=O)c2ccc(NC(=O)N3CCCCc4ccccc43)cc2)cc1 -8.16%, CCCCOc1cccc(C(=O)N(Cc2sccc2C)C2CCS(=O)(=O)C2)c1 (stereo unspecified) 1.79%, CCN(CC)S(=O)(=O)c1ccc2oc(C(=O)N(C)Cc3ccccc3)c(C)c2c1 -13.2%, COc1cc(C2CC(=O)Nc3cc4c(cc32)OCCO4)cc(Br)c1OC (stereo unspecified) -22.7%, Cc1cccc(N2CCN(C(=O)CCCCn3c(=O)[nH]c4ccsc4c3=O)CC2)c1C -6.62%, COc1ccc(Cn2c(=O)c3oc4ccccc4c3n(Cc3ccc(F)cc3)c2=O)cc1 -3.45%, Cc1cc(Nc2cccc(Cl)c2)nc2ccc(NC(=O)Cc3cccc(C(F)(F)F)c3)cc12 -13%, Cn1ccc2c(OCC(=O)Nc3cc(C(F)(F)F)ccc3Cl)cccc2c1=O -0.309%, COc1ccc(C2C=C(c3ccccc3)Nc3nc(NC(=O)/C=C/c4ccccc4)nn32)cc1 (stereo unspecified) -10.9%, CCOc1ccccc1NC(=O)CCn1nc(C)c(S(=O)(=O)N2CCCCC2)c1C -0.885%, O=C(NCCCc1ccccc1)C1CCN(C(=O)N2CCOc3ccc(Cl)cc32)CC1 -12.5%, CCc1ccc(NC(=O)CSC2=Nc3ccccc3C3=NC(CC(=O)NCc4ccccc4)C(=O)N23)cc1 (stereo unspecified) -8.68%, O=C(Cn1ncc2c3ccccc3n(Cc3cccc(Cl)c3)c2c1=O)NC1CCCCCC1 -15.6%, COC(=O)CCN(c1ccccc1)S(=O)(=O)c1cc(-c2cc(C)no2)ccc1OC -9.89%, CCN1CCSc2ccc(C(=O)NCc3ccc(OC)cc3)cc21 -19.2%, CCN(CC)S(=O)(=O)c1ccc2c(c1)c(=O)c(C(=O)N1CCN(c3ccc(F)cc3)CC1)cn2C -11.3%, COc1cccc(NC(=O)Cn2c(=O)n(-c3ccc(C)cc3)c(=O)c3ccc(C(=O)NCc4ccco4)cc32)c1 -4.89%, Cc1c(C(=O)Nc2cccc(Cl)c2)oc2ccc(S(=O)(=O)N(C)C3CCCCC3)cc12 -13.2%, CCOc1ccccc1N(CC(=O)N1CCc2ccccc2C1)S(=O)(=O)c1ccccc1 -1.04%
